In the supplement of paper PMC11417369:
± gives the standard deviation of the averaged measurements. The list shows a part of the results.

System: PfAP2-EXP AP2 domain (GST-tagged)
Test: gcPBM binding intensity (ln(normalized median fluorescence intensity)); higher = stronger DNA binding
Summary of the method: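 DNA-binding domains from P. falciparum, fused to GST and produced in E. coli, were put on an Agilent 4 × 180k double-stranded probe array for 1 h in 1× PBS holding 1% milk, 0.2 mg/ml BSA, 0.5% salmon testes DNA and 0.03% Triton X-100. Probes were primer-extended, 36 bp long and drawn from intergenic genomic regions, with negative controls included. After Alexa488 anti-GST antibody detection and a 488 nm scan, binding intensity was set as the highest Masliner-normalised natural-log median intensity across replicate spots of either probe orientation.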

| Sequence | gcPBM binding intensity (ln) |
| --- | --- |
| AAGTAATTTGTTGACACACACACACGCATACCTATA [CACACA_site7140] | 8.71 ± 0.34 |
| AATGTAATATAAATATGTACATATAAACTATATATA [XGTACX_site6871] | 8.55 ± 0.37 |
| ATTATATATATATATATATATATATATATATTATAT [CACACA_negctrl_site234] | 8.74 ± 0.071 |
| GTTTTAAAACAAATATGTACACATAATATAGGAAAG [XGTACX_site1803] | 9.07 ± 0.3 |
| ACTTATGATTTATTTTGTACATATATACTATTCCTG [XGTACX_site5275] | 9.11 ± 0.35 |
| GCTCCTTTTACCATCGCACACGATAAAAAAAAATAA [CACACA_site3255] | 8.88 ± 0.38 |
| ACAAATACTAACAACGCATGTAAGCCTACAATAAAT [TGCATGCA_site551] | 8.91 ± 0.33 |
| ATCCTCTTTTTAAGTTGTACAGGGTCGAAAAAAAAA [XGTACX_site6852] | 8.64 ± 0.57 |
| GATTATTATTATAAGGGTACAAATATTTAATAAAAA [XGTACX_site7144] | 8.74 ± 0.4 |
| AAAAAAAAATAAAAAAGTACATTCATTTTATAAGAT [XGTACX_site3507] | 8.41 ± 0.42 |
| CATGTCAAAATTATACGTACATATATAAGTTCCATT [XGTACX_site6331] | 8.65 ± 0.33 |
| AGATAGCTATTAAAAAGTACAAAAAAATATATATAT [XGTACX_site6289] | 9.31 |
| TATACAGGAATATTTTTACACACTAATAATTATAAA [CACACA_site8477] | 8.25 ± 0.44 |
| TATTTACAACAAATTTAATTATTTTTAACTTATAAA [GTGCAC_negctrl_site259] | 7.93 ± 0.32 |
| TATTTTATATAAAGGTGTACTTATACAAAAATATAT [XGTACX_site7435] | 8.56 ± 0.22 |
| ATAAATACAGATATTACACACTTCTTATTCTAAGAA [CACACA_site5640] | 8.21 ± 0.52 |
| TTTTTTTTTTTTGAGTGTACAAGATTGTTGTTCCAA [XGTACX_site6120] | 8.37 ± 0.57 |
| TTTTTTCAAATTATTCGATATGTAAAAAAATAAAAT [GTGCAC_negctrl_site241] | 8.21 ± 0.49 |
| AAATATTTGTGTGGTTGTACTATAATGATAAAAATA [XGTACX_site7703] | 8.81 ± 0.4 |
| TTATATTATATATATATTATATATATGTATGCATAA [TGCATGCA_negctrl_site481] | 8.29 ± 0.39 |
| CATACATACAAACACACACACATATATATATATATA [CACACA_site43] | 10.1 ± 0.16 |
| GGTTTGAATTTTTAAGTGCATATAACATAAATGAAA | 8.65 ± 0.2 |
| TTTGTAGATTTTGTAACACACACATATATATACATA [CACACA_site8757] | 8.45 ± 0.35 |

| Sequence | gcPBM binding intensity (ln) |
| --- | --- |
| TATGCACCCAGACACACACACACAACTAAAAAATAA [CACACA_site2567] | 8.64 ± 0.38 |
| TCTTTCTATTTATAATGTACTCAAAATTATTCTATA [XGTACX_site4867] | 8.6 ± 0.36 |
| TACCATTATTTTAAGTGTACATACTAATTTATATAT [XGTACX_site6548] | 8.61 ± 0.28 |
| AAAATATAATATATTGCACACAAAAAGTGAATTATT [CACACA_site8489] | 8.54 ± 0.33 |
| CCTTGCATTTATTATACACACACAAAAAAATATATA [CACACA_site7964] | 8.77 ± 0.17 |
| TTTTACCACTAAAAATGTACAAAAAAAAAAAAAAAA [XGTACX_site4226] | 7.92 ± 0.43 |
| AAATTGTGTGAAATATATTAATATTATTATTATTAT [TGCATGCA_negctrl_site189] | 8.29 ± 0.32 |
| TTGCAAATATATGGTTGTACTCAAAAAAAAAAAAAA [XGTACX_site6975] | 8.26 ± 0.42 |
| CAAAAATAACGAGTCAAACACACATATATATATATA [CACACA_site2038] | 10.1 ± 0.24 |
| AAAGGGATAACACCAAAAAAAATAAAAATAAAAATA [GTGCAC_negctrl_site680] | 8.61 ± 0.54 |
| TCAAGAATTTTAAAGAGTACATAAAACAATAATATA [XGTACX_site3923] | 8.69 ± 0.4 |
| ATTAATGATTTTTGTTGTACATTATTAATTTACATT [XGTACX_site544] | 8.69 ± 0.35 |
| ATGCGTATACTAAGAACACACAAGTTACTTGGTGTT [CACACA_site1625] | 8.56 ± 0.31 |
| TATTTTATATTTCATTTGTTATTTTTCTTGGTTCTA [CACACA_negctrl_site33] | 8.63 ± 0.57 |
| CATACATACATACATACACACATACATATGTATTTA [CACACA_site5384] | 9.26 ± 0.25 |
| CAACACTTTCAAAAATGTACGTACAAATGTATTTTA [XGTACX_site6713] | 8.65 ± 0.32 |
| ACAAAATAAAGACACACACACAAACACAAAAAAATA [CACACA_site7568] | 8.51 ± 0.72 |
| AGTTTCCATATGAGGTGTACATATATAATTTATTAT [XGTACX_site2369] | 8.72 ± 0.4 |
| TTATATGAAAAAATATGTACGTATAATGAGAAATAT [XGTACX_site8987] | 9.01 ± 0.39 |
| AAATAGATAAACTAAACACACAAAAAAAAAAAAAAT [CACACA_site1179] | 8.41 ± 0.54 |
| AAAATAACGAGTCAAACACACATATTTATATTTATA [CACACA_site7050] | 8.32 ± 0.49 |
| TAATATAACTACATAACACACGAAAATATATGAATC [CACACA_site3628] | 9.03 ± 0.31 |
| TCATTAATCAGGTATGCATGCATAACTATTAAAAAT [TGCATGCA_site90] | 9.75 ± 0.4 |

| Sequence | gcPBM binding intensity (ln) |
| --- | --- |
| GTTATAAATGCATATACACACATACGTACATACATA [CACACA_site7655] | 8.79 ± 0.23 |
| TCTTTTTTTTTTATTTGTACTTATTTTTTTCAAAAA [XGTACX_site3403] | 8.76 ± 0.33 |
| AAAAAAAAAAAAAAAACACACATTTCTTTTTCATAT [CACACA_site11] | 8.71 ± 0.17 |
| AATAATAATATATGTAGTACACATTTCCATTATGTT [XGTACX_site3708] | 8.65 ± 0.29 |
| TTAATTATATATAAAAGTACTTATTTTTCCATATAA [XGTACX_site3033] | 8.14 ± 0.42 |
| TAATAGGAAATTATAGGTACACATACAAATAAATAA [XGTACX_site3587] | 8.72 ± 0.41 |
| ATGTAGATATATATATGTACTAATTAGTAGTTTACG [XGTACX_site6275] | 8.91 ± 0.4 |
| AATGGTACATGATACACACACGCACATATATATATT [CACACA_site3425] | 8.77 ± 0.46 |
| ACATAAATAATAAAAACACACATATGTACAGATATA [CACACA_site5112] | 8.81 ± 0.36 |
| AGAAAAAATAAAAATAGTACTCAAAAAATTATGAAT [XGTACX_site4908] | 8.48 ± 0.3 |
| AGAAAAAAAAAACACACACACACACCCTCAATATAA [CACACA_site39] | 8.64 ± 0.49 |
| ATATTAAAAAGAAGTGTGCGCAAAACATTAACTTGA | 9.14 ± 0.53 |
| ATTTATATATTGCCCACACACATGTGATTATTTATA [CACACA_site1714] | 9.05 ± 0.48 |
| TAAATAAACCTGACTTGTACATGTAAAATAAATATA [XGTACX_site1667] | 8.9 ± 0.42 |
| AATGGATGGTCCAAATGTACATATATATATATATAT [XGTACX_site4800] | 10.1 ± 0.41 |
| GCATAAATCAAACACACACACATATATATATATATA [CACACA_site2422] | 10.2 ± 0.21 |
| AATGAATATAGTACTGAATGTAATTTAAGGTTTTCC [CACACA_negctrl_site1548] | 8.37 ± 0.32 |
| TATAATGGATGCTAGCTGCACTAATAAGCAAAAATA | 8.73 ± 0.28 |
| GATGATATATATTAGCGTACATGTATATATACCATT [XGTACX_site6404] | 8.79 ± 0.38 |
| AAAATTTCAAATAACACACACTAATATATATCTGTA [CACACA_site4904] | 8.28 ± 0.59 |
| TAAATGAGAAGGACTGCACACTAAAATGGAAGGAGA [CACACA_site8449] | 9.03 ± 0.49 |
| TATTTGTATATATGTGTGCACGTATAATCCATTAAA [GTGCAC_site9569] | 8.95 ± 0.18 |
| TCCTTACCTATTAAAGCATGCTCGAATATATATTTT [TGCATGCA_site53] | 9.04 ± 0.45 |

| Sequence | gcPBM binding intensity (ln) |
| --- | --- |
| ATATATATATCATATTGTACATACTTGTATTTATAT [XGTACX_site2432] | 9.23 ± 0.028 |
| GTGGACGAAATAGTTGTAAATTTATGTGCAAACCTC [XGTACX_negctrl_site564] | 8.87 ± 0.39 |
| AACAAAATAAATGTATGTACATATATATATATATAT [XGTACX_site7974] | 10.1 ± 0.39 |
| TATATTAAATATTACACACATACATTTAGTGTCAAA [CACACA_site1990] | 8.35 ± 0.37 |
| TGGGAGCACAGACACACACACACACCGATATATATA [CACACA_site8001] | 8.76 ± 0.29 |
| ACTTATAAAATAACATGTACAAATATTTATTATATA [XGTACX_site133] | 8.37 ± 0.28 |
| TATGGTAACATATGCTGTACAATATAATATGTTTAA [XGTACX_site1601] | 8.47 ± 0.32 |
| AAAAAAAAAAGGTGTACATGCAAAATAAATTCTTAA [TGCATGCA_site556] | 9.02 ± 0.35 |
| AAAAAAAAAAAACACACACACACACCGACAAAATAT [CACACA_site8411] | 8.81 ± 0.82 |
| AAATTATAAATACCTACACACTTATCAAAATAAATT [CACACA_site5280] | 8.15 ± 0.52 |
| TAAACATAAATATACACACAAACATATATGTATTTT [CACACA_site1214] | 8.51 ± 0.32 |
| AATATTTTTTTATAAACACACATATATATAAATATA [CACACA_site3524] | 8.38 ± 0.51 |
| TATATATTTTTATGTGTGCACTGTTTCATAAAAGAA | 9.3 ± 0.21 |
| TATATAAATATAATATGTACATATAATATGTATATA [XGTACX_site8120] | 8.36 ± 0.26 |
| TAATAATTTATATATGCATGTCAAAATAATATTAAA [TGCATGCA_site12] | 8.4 ± 0.38 |
| TGGTATCAAAAGAATACACACACACCGACATATATA [CACACA_site9265] | 8.71 ± 0.52 |
| GAATATAAACATATTACACACATCTATCTGTACATT [CACACA_site5114] | 8.5 ± 0.33 |
| GTGGGAAACATAAACACACACAAAAAGAAAAAATAG [CACACA_site4810] | 8.89 ± 0.64 |
| GTTTTATTTATTTCATGTACACAAAAAAGGTTTTAA [XGTACX_site6525] | 8.76 ± 0.38 |
| TCTCTAACTTTTAATACACACAAATAAATAAATAAA [CACACA_site6245] | 8.47 ± 0.35 |
